# Laboratory results published in the supplement of paper PMC8728848.
# The list shows a part of the results.
# B1: DrGal3 (Danio rerio) (protein)
# chain: MDLSDALDAPPQQNNQQAGGPVWPGQPANPVWPGQPANPTWPGQPNQPAWPGQPNQQWPGQPGQPTAPGWPGPAPQTGPYGAPGQAPQVLTVPLDFPLQNGAYNKMLITINGEVKPNAKQFTVNLRRGNDIAFHINPRFSEGGKPVIVRNSMIGNNWGREERELPSFPFVPGKPFEMKILITDTEYKVAVNKSHLLEFKHRVFELNQITGLSIYNDVTLSTVNVETLQ
# Columns and labels:
# Test in all cases: glycan array binding signal (z-score within array); higher = stronger binding
# Conditions in all cases: glycan notation: IUPAC condensed, linker removed
# [1] = target: GlcNAc(b1-3)Gal(b1-3)GalNAc
# Summary of the method: (§1)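 The Consortium for Functional Glycomics database supplied 3228 glycan arrays, of which those lacking an available protein sequence were dropped. The binding signal, a within-array Z-score, was averaged across arrays of the same protein sequence and across linkers. Negative scores can be read as non-binding.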
# GlcNAc(b1-3)Gal(b1-4)Glc = target: GlcNAc(b1-3)Gal(b1-4)Glc
# Summary of the method: as §1
# [2] = target: GlcNAc(b1-3)Gal(b1-4)GlcNAc
# Summary of the method: as §1
# [3] = target: GlcNAc(b1-3)Gal(b1-4)GlcNAc(b1-2)Man(a1-3)[GlcNAc(b1-3)Gal(b1-4)GlcNAc(b1-2)Man(a1-6)]Man(b1-4)GlcNAc(b1-4)GlcNAc
# Summary of the method: as §1
# [4] = target: GlcNAc(b1-3)Gal(b1-4)GlcNAc(b1-2)Man(a1-3)[GlcNAc(b1-3)Gal(b1-4)GlcNAc(b1-2)Man(a1-6)]Man(b1-4)GlcNAc(b1-4)[Fuc(a1-6)]GlcNAc
# Summary of the method: as §1
# [5] = target: GlcNAc(b1-3)Gal(b1-4)GlcNAc(b1-2)[GlcNAc(b1-3)Gal(b1-4)GlcNAc(b1-6)]Man(a1-6)[GlcNAc(b1-3)Gal(b1-4)GlcNAc(b1-2)Man(a1-3)]Man(b1-4)GlcNAc(b1-4)GlcNAc
# Summary of the method: as §1
# [6] = target: GlcNAc(b1-3)Gal(b1-4)GlcNAc(b1-3)Gal(b1-4)GlcNAc
# Summary of the method: as §1
# [7] = target: GlcNAc(b1-3)Gal(b1-4)GlcNAc(b1-3)Gal(b1-4)GlcNAc(b1-2)Man(a1-3)[GlcNAc(b1-3)Gal(b1-4)GlcNAc(b1-3)Gal(b1-4)GlcNAc(b1-2)Man(a1-6)]Man(b1-4)GlcNAc(b1-4)GlcNAc
# Summary of the method: as §1
# [8] = target: GlcNAc(b1-3)Gal(b1-4)GlcNAc(b1-3)Gal(b1-4)GlcNAc(b1-2)Man(a1-3)[GlcNAc(b1-3)Gal(b1-4)GlcNAc(b1-3)Gal(b1-4)GlcNAc(b1-2)Man(a1-6)]Man(b1-4)GlcNAc(b1-4)[Fuc(a1-6)]GlcNAc
# Summary of the method: as §1
# [9] = target: GlcNAc(b1-3)Gal(b1-4)GlcNAc(b1-3)Gal(b1-4)GlcNAc(b1-2)[GlcNAc(b1-3)Gal(b1-4)GlcNAc(b1-3)Gal(b1-4)GlcNAc(b1-6)]Man(a1-6)[GlcNAc(b1-3)Gal(b1-4)GlcNAc(b1-3)Gal(b1-4)GlcNAc(b1-2)Man(a1-3)]Man(b1-4)GlcNAc(b1-4)[Fuc(a1-6)]GlcNAc
# Summary of the method: as §1
# [10] = target: GlcNAc(b1-3)Gal(b1-4)GlcNAc(b1-3)Gal(b1-4)GlcNAc(b1-3)Gal(b1-4)GlcNAc(b1-2)Man(a1-3)[GlcNAc(b1-3)Gal(b1-4)GlcNAc(b1-3)Gal(b1-4)GlcNAc(b1-3)Gal(b1-4)GlcNAc(b1-2)Man(a1-6)]Man(b1-4)GlcNAc(b1-4)GlcNAc
# Summary of the method: as §1
# [11] = target: GlcNAc(b1-3)Gal(b1-4)GlcNAc(b1-3)Gal(b1-4)GlcNAc(b1-3)Gal(b1-4)GlcNAc(b1-2)Man(a1-3)[GlcNAc(b1-3)Gal(b1-4)GlcNAc(b1-3)Gal(b1-4)GlcNAc(b1-3)Gal(b1-4)GlcNAc(b1-2)Man(a1-6)]Man(b1-4)GlcNAc(b1-4)[Fuc(a1-6)]GlcNAc
# Summary of the method: as §1
# [12] = target: GlcNAc(b1-3)Gal(b1-4)GlcNAc(b1-3)Gal(b1-4)GlcNAc(b1-3)Gal(b1-4)GlcNAc(b1-2)[GlcNAc(b1-3)Gal(b1-4)GlcNAc(b1-3)Gal(b1-4)GlcNAc(b1-3)Gal(b1-4)GlcNAc(b1-6)]Man(a1-6)[GlcNAc(b1-3)Gal(b1-4)GlcNAc(b1-3)Gal(b1-4)GlcNAc(b1-3)Gal(b1-4)GlcNAc(b1-2)Man(a1-3)]Man(b1-4)GlcNAc(b1-4)[Fuc(a1-6)]GlcNAc
# Summary of the method: as §1
# [13] = target: GlcNAc(b1-3)Gal(b1-4)GlcNAc(b1-3)Gal(b1-4)GlcNAc(b1-3)Gal(b1-4)GlcNAc(b1-3)Gal(b1-4)GlcNAc(b1-2)Man(a1-3)[GlcNAc(b1-3)Gal(b1-4)GlcNAc(b1-3)Gal(b1-4)GlcNAc(b1-3)Gal(b1-4)GlcNAc(b1-3)Gal(b1-4)GlcNAc(b1-2)Man(a1-6)]Man(b1-4)GlcNAc(b1-4)GlcNAc
# Summary of the method: as §1
# [14] = target: GlcNAc(b1-3)Gal(b1-4)GlcNAc(b1-3)Gal(b1-4)GlcNAc(b1-3)Gal(b1-4)GlcNAc(b1-3)Gal(b1-4)GlcNAc(b1-2)Man(a1-3)[GlcNAc(b1-3)Gal(b1-4)GlcNAc(b1-3)Gal(b1-4)GlcNAc(b1-3)Gal(b1-4)GlcNAc(b1-3)Gal(b1-4)GlcNAc(b1-2)Man(a1-6)]Man(b1-4)GlcNAc(b1-4)[Fuc(a1-6)]GlcNAc
# Summary of the method: as §1
# [15] = target: GlcNAc(b1-3)Gal(b1-4)GlcNAc(b1-3)Gal(b1-4)GlcNAc(b1-3)Gal(b1-4)GlcNAc(b1-3)Gal(b1-4)GlcNAc(b1-2)[GlcNAc(b1-3)Gal(b1-4)GlcNAc(b1-3)Gal(b1-4)GlcNAc(b1-3)Gal(b1-4)GlcNAc(b1-3)Gal(b1-4)GlcNAc(b1-6)]Man(a1-6)[GlcNAc(b1-3)Gal(b1-4)GlcNAc(b1-3)Gal(b1-4)GlcNAc(b1-3)Gal(b1-4)GlcNAc(b1-3)Gal(b1-4)GlcNAc(b1-2)Man(a1-3)]Man(b1-4)GlcNAc(b1-4)[Fuc(a1-6)]GlcNAc
# Summary of the method: as §1
# [16] = target: GlcNAc(b1-3)Gal(b1-4)GlcNAc(b1-3)Gal(b1-4)GlcNAc(b1-3)GalNAc
# Summary of the method: as §1
# [17] = target: GlcNAc(b1-3)Gal(b1-4)GlcNAc(b1-3)GalNAc
# Summary of the method: as §1
# [18] = target: GlcNAc(b1-3)Gal(b1-4)GlcNAc(b1-3)[GlcNAc(b1-3)Gal(b1-4)GlcNAc(b1-3)]GalNAc
# Summary of the method: as §1
# [19] = target: GlcNAc(b1-3)Gal(b1-4)GlcNAc(b1-6)[Gal(b1-3)]GalNAc
# Summary of the method: as §1
# [20] = target: GlcNAc(b1-3)Gal(b1-4)GlcNAc(b1-6)[GlcNAc(b1-3)Gal(b1-3)]GalNAc
# Summary of the method: as §1
# [21] = target: GlcNAc(b1-3)Gal(b1-4)GlcNAc(b1-6)[GlcNAc(b1-3)]Gal(b1-4)GlcNAc
# Summary of the method: as §1
# GlcNAc(b1-3)GalNAc = target: GlcNAc(b1-3)GalNAc
# Summary of the method: as §1
# GlcNAc(b1-3)Man = target: GlcNAc(b1-3)Man
# Summary of the method: as §1
# [22] = target: GlcNAc(b1-3)[GlcNAc(b1-4)][GlcNAc(b1-6)]GlcNAc
# Summary of the method: as §1
# [23] = target: GlcNAc(b1-3)[GlcNAc(b1-6)]Gal(b1-4)GlcNAc
# Summary of the method: as §1
# [24] = target: GlcNAc(b1-3)[GlcNAc(b1-6)]GalNAc
# Summary of the method: as §1
# [25] = target: GlcNAc(b1-4)Gal(b1-4)GlcNAc
# Summary of the method: as §1
# GlcNAc(b1-4)GlcNAc = target: GlcNAc(b1-4)GlcNAc
# Summary of the method: as §1
# [26] = target: GlcNAc(b1-4)GlcNAc(b1-4)GlcNAc
# Summary of the method: as §1
# [27] = target: GlcNAc(b1-4)GlcNAc(b1-4)GlcNAc(b1-4)GlcNAc(b1-4)GlcNAc
# Summary of the method: as §1
# [28] = target: GlcNAc(b1-4)GlcNAc(b1-4)GlcNAc(b1-4)GlcNAc(b1-4)GlcNAc(b1-4)GlcNAc
# Summary of the method: as §1
# [29] = target: GlcNAc(b1-4)[GlcNAc(b1-6)]GalNAc
# Summary of the method: as §1
# [30] = target: GlcNAc(b1-6)Gal(b1-4)GlcNAc
# Summary of the method: as §1
# GlcNAc(b1-6)GalNAc = target: GlcNAc(b1-6)GalNAc
# Summary of the method: as §1
# [31] = target: GlcNAc6S(b1-3)Gal(b1-4)GlcNAc
# Summary of the method: as §1
# Kdn(a2-3)Gal(b1-3)GalNAc = target: Kdn(a2-3)Gal(b1-3)GalNAc
# Summary of the method: as §1
# Kdn(a2-3)Gal(b1-3)GlcNAc = target: Kdn(a2-3)Gal(b1-3)GlcNAc
# Summary of the method: as §1
# Kdn(a2-3)Gal(b1-4)Glc = target: Kdn(a2-3)Gal(b1-4)Glc
# Summary of the method: as §1
# Kdn(a2-3)Gal(b1-4)GlcNAc = target: Kdn(a2-3)Gal(b1-4)GlcNAc
# Summary of the method: as §1
# [32] = target: Kdn(a2-3)Gal(b1-4)[Fuc(a1-3)]GlcNAc
# Summary of the method: as §1
# Kdn(a2-6)Gal(b1-4)GlcNAc = target: Kdn(a2-6)Gal(b1-4)GlcNAc
# Summary of the method: as §1
# [33] = target: Man(a1-2)Man(a1-2)Man(a1-3)Man
# Summary of the method: as §1
# [34] = target: Man(a1-2)Man(a1-2)Man(a1-6)[Man(a1-3)]Man
# Summary of the method: as §1
# Man(a1-2)Man(a1-3)Man = target: Man(a1-2)Man(a1-3)Man
# Summary of the method: as §1
binder,measurement,setting,value
B1,glycan array binding signal (z-score),[1],-0.216
same,glycan array binding signal (z-score),GlcNAc(b1-3)Gal(b1-4)Glc,-0.284
same,glycan array binding signal (z-score),[2],-0.231
same,glycan array binding signal (z-score),[3],-0.104
same,glycan array binding signal (z-score),[4],-0.135
same,glycan array binding signal (z-score),[5],-0.177
same,glycan array binding signal (z-score),[6],1.15
same,glycan array binding signal (z-score),[7],2.31
same,glycan array binding signal (z-score),[8],3.28
same,glycan array binding signal (z-score),[9],1.72
same,glycan array binding signal (z-score),[10],2.87
same,glycan array binding signal (z-score),[11],6.12
same,glycan array binding signal (z-score),[12],3.34
same,glycan array binding signal (z-score),[13],5.4
same,glycan array binding signal (z-score),[14],5.55
same,glycan array binding signal (z-score),[15],3.29
same,glycan array binding signal (z-score),[16],0.689
same,glycan array binding signal (z-score),[17],-0.15
same,glycan array binding signal (z-score),[18],0.017
same,glycan array binding signal (z-score),[19],-0.099
same,glycan array binding signal (z-score),[20],-0.229
same,glycan array binding signal (z-score),[21],-0.193
same,glycan array binding signal (z-score),GlcNAc(b1-3)GalNAc,-0.249
same,glycan array binding signal (z-score),GlcNAc(b1-3)Man,-0.263
same,glycan array binding signal (z-score),[22],-0.271
same,glycan array binding signal (z-score),[23],-0.168
same,glycan array binding signal (z-score),[24],-0.252
same,glycan array binding signal (z-score),[25],-0.157
same,glycan array binding signal (z-score),GlcNAc(b1-4)GlcNAc,-0.258
same,glycan array binding signal (z-score),[26],-0.27
same,glycan array binding signal (z-score),[27],-0.275
same,glycan array binding signal (z-score),[28],-0.217
same,glycan array binding signal (z-score),[29],-0.25
same,glycan array binding signal (z-score),[30],-0.221
same,glycan array binding signal (z-score),GlcNAc(b1-6)GalNAc,-0.26
same,glycan array binding signal (z-score),[31],-0.183
same,glycan array binding signal (z-score),Kdn(a2-3)Gal(b1-3)GalNAc,-0.239
same,glycan array binding signal (z-score),Kdn(a2-3)Gal(b1-3)GlcNAc,-0.284
same,glycan array binding signal (z-score),Kdn(a2-3)Gal(b1-4)Glc,-0.234
same,glycan array binding signal (z-score),Kdn(a2-3)Gal(b1-4)GlcNAc,-0.17
same,glycan array binding signal (z-score),[32],-0.192
same,glycan array binding signal (z-score),Kdn(a2-6)Gal(b1-4)GlcNAc,-0.191
same,glycan array binding signal (z-score),[33],-0.241
same,glycan array binding signal (z-score),[34],-0.28
same,glycan array binding signal (z-score),Man(a1-2)Man(a1-3)Man,-0.211
